Laboratory results published in PubChem BioAssay AID1159614 (National Center for Advancing Translational Sciences (NCATS), 2016).
Screen size: about 45,000 compounds; about 65 (0.1%) were called active. The call rests on the fitted dose curve; in most records, active means well fitted activation curve with a large enough effect; inconclusive means small, poorly fitted or top-dose-only effect; inactive means no such curve, though single readings can be large or run the other way. This is one part of the list.

The compounds below were run against Galactocerebrosidase (Homo sapiens) (UniProt P54803) (assay: A Novel Cell-Based Assay to Identify Small Molecules for B -Galactocerebrosidase). Details: 145M-Twi-hGALC-G270D cells (Twitcher mouse brain line with human GALC G270D), HMU-beta-Gal fluorescence, 48 h; series mostly up to 57.5 µM; activation: at the top concentration.
Chain of UniProt P54803 (P54803 whole entry, looked up): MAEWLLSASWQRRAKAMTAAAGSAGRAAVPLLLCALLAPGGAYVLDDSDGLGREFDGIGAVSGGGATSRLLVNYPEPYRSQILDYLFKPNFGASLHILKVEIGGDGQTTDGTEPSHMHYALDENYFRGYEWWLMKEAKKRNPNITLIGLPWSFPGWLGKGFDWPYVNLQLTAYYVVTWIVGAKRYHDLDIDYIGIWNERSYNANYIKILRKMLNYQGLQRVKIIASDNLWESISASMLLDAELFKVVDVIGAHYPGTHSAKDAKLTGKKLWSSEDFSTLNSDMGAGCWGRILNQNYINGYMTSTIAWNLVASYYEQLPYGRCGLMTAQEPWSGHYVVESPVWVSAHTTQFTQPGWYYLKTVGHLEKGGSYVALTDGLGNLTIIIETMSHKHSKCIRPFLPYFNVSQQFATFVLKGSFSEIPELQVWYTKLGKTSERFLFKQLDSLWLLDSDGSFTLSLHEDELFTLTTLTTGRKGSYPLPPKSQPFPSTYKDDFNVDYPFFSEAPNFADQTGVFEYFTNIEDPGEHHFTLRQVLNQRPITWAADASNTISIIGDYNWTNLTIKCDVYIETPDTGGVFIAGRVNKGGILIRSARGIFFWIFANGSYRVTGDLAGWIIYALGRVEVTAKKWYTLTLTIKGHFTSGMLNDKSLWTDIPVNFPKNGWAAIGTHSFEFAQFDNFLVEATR
Procedure, shortened: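 Fluorescence readout: HMU-β-gal cleavage by mutant GALC (0.1 mM final, citrate/phosphate pH 5.2 with 1 mg/mL taurocholate), stopped with carbonate/bicarbonate plus Triton X-100. Cells: murine Twitcher 145M-Twi expressing human G270D GALC; qHTS for activators.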
Further: 0% is about no effect; nearly all actives have a fitted effect of over 65% in size.

activation, inactive:
O=c1c2sc3ccccc3c2n(Cc2ccc(F)cc2Cl)c(=O)n1Cc1ccccc1 3.08%
CCOc1ccccc1CNC(=O)c1oc2ccc3c(c2c1C)C(=O)CC(C)(C)O3 -7.95%
Cc1ccc(S(=O)(=O)C(CNC(=O)C(=O)NCc2ccc(Cl)cc2)c2ccco2)cc1 (stereo not given) -8.06%
CCOc1ccc(-n2c(=O)c3c(C)c(C(=O)N(C)C)sc3n(Cc3cc(C)ccc3C)c2=O)cc1 -3.18%
CCOC(=O)c1ccc(-c2ccc(/C=C(\C#N)C(=O)Nc3ccc(C)cc3)o2)cc1 -11.5%
COc1cc(CN(C(=O)c2ccc(Cl)cc2)C2CCS(=O)(=O)C2)cc(OC)c1OC (stereo not given) -6.31%
CCOc1ccc(S(=O)(=O)N(CC(=O)Nc2ccc3c(c2)OCO3)c2ccc(C)cc2)cc1 -12.1%
Cc1ccc2oc(-c3ccc(C)c(NC(=O)c4ccc(-c5ccccc5[N+](=O)[O-])o4)c3)nc2c1 -14.1%
COCC(=O)Nc1c(C(=O)Nc2ccc(C)cc2)oc2ccccc12 -2.3%
CCCCCCCCCCCCCC[N+](C)(C)Cc1ccccc1 -10.8%
COC(=O)c1ccc2nc(C)cc(Nc3cccc(Cl)c3C)c2c1 -8.01%
Cc1ccc(CNC(=O)CN2C(=O)CCc3cc(S(=O)(=O)N4CCCCC4)ccc32)cc1 27.8%
CCN(CC)S(=O)(=O)c1ccc(N2CCCCS2(=O)=O)cc1 -15%
Cc1ccc2onc(CNC(=O)N3CCN(c4cccc(C(F)(F)F)c4)CC3)c2c1 -20.5%
CCn1cc(S(=O)(=O)c2ccc(Cl)cc2)c(=O)c2cc(F)c(N3CCOCC3)cc21 -16.4%
Oc1ccc(-c2nc3ccc(Cl)cn3c2Nc2ccc3c(c2)OCO3)cc1 -17%
Cc1ccc(-n2c(=O)c3c(C)c(C)sc3n(Cc3ccc(F)cc3Cl)c2=O)cc1C -17.2%
COc1ccc(CCNC(=O)Cc2c(C)c3cc4c(C)coc4cc3oc2=O)cc1OC -6.19%
O=C(NCc1ccc(Cl)cc1)C1CCN(S(=O)(=O)c2ccccc2)CC1 -10.5%
COc1ccc(N(C(=O)c2ccccc2)S(=O)(=O)c2ccc3c(c2)n(C)c(=O)n3C)cc1 -15.7%
O=C1CC(=O)Nc2cc(S(=O)(=O)N3CCOc4ccc(Cl)cc43)ccc2N1 -4.74%
Cc1cc(C)c(NS(=O)(=O)c2ccc(-c3coc(C)n3)cc2)c(C)c1 -6.24%
COc1cc(C(=O)NCc2nc3cccnc3n2Cc2ccc(C)cc2)cc(OC)c1OC -12.3%
CC(=O)c1ccc(NC(=O)Cn2ncc3c4ccccc4n(Cc4ccccc4)c3c2=O)cc1 -8.41%
O=C(Cn1c(=O)n2nc(-c3cccc(F)c3)nc2c2ccccc21)N1CCN(c2ccc(F)cc2)CC1 -19%
Cn1c(=O)c2c(ncn2Cc2ccc(Cl)cc2)n(C)c1=O -5.22%
CCN1CCN(C(c2ccccc2Cl)c2c(O)cc(C)n(Cc3ccco3)c2=O)CC1 (stereo not given) -19.1%
Cc1cccc(Cn2nnc3c(=O)[nH]c(C4CCCN(C(=O)c5ccccc5Cl)C4)nc32)c1 (stereo not given) 1.63%
Cc1ccc(N(C)C(=O)CN2C(=O)CCc3cc(S(=O)(=O)N4CCOCC4)ccc32)cc1 5.12%
O=C(c1ccc2c(c1)N(Cc1cccc(Cl)c1)C(=O)c1ccccc1S2=O)N1CCN(c2cccc(C(F)(F)F)c2)CC1 (stereo not given) -8.47%
O=C(NC1CC(=O)N(c2ccc(F)cc2)C1)c1ccc2c(c1)OCO2 (stereo not given) 3.63%
COc1ccccc1CNC(=O)CCn1cnc2ccccc2c1=O -15.1%
CCc1ccc(NC(=O)Cn2c(=O)n(-c3cc(OC)c(OC)c(OC)c3)c(=O)c3ccccc32)cc1 -24.1%
CC(NC(=O)c1ccc(F)cc1)c1nc2ccccc2[nH]1 (stereo not given) -15.2%
COc1ccccc1NC(=O)c1cn(-c2ccccc2)nc1-c1ccccc1 -9.98%
Cc1cc(C(=O)C(=O)Nc2nncs2)c(C)n1-c1ccc(Cl)cc1 -15%
Cc1cccc(N2CCN(C(=O)c3noc4c3CCCCC4)CC2)c1C -14.4%
COc1ccc(N2CCN(C(=O)CNS(=O)(=O)c3ccc(Br)s3)CC2)cc1 -2.69%
Cc1ccc(-n2ncc3c(NC4CCCCC4)ncnc32)cc1Cl -5.56%
Cc1ccc(N2CCN(C(=O)c3cnn(-c4ccc(C)c(C)c4)c3C3CCNCC3)CC2)c(C)c1 -17.6%
COc1ccc(CNC(=O)CCCn2nc(C)c3c(C)n(-c4ccc(C)cc4)nc3c2=O)cc1OC -0.222%
O=C(CNC(=O)c1ccc(F)cc1)OCc1cc(=O)n2nc(C3CCCCC3)sc2n1 -12.1%
COc1ccc(OC)c(NC(=O)CN2CCCN(Cc3ccccc3Cl)S2(=O)=O)c1 -9.81%
CCOc1cc(CNC(=O)c2ccc3c(c2)N(C)C(=O)C2CCCCN32)ccc1OC (stereo not given) -20.6%
CCOc1ccccc1C(=O)NCc1nc2cccnc2n1Cc1ccc(C)cc1 3.04%
O=C(CN1C(=O)COc2ccc(S(=O)(=O)N3CCCCCC3)cc21)N1CCN(c2ccccc2F)CC1 -9.03%
CCOc1ccc(CNC(=O)CCS(=O)(=O)c2cc3c4c(c2)CCN4C(=O)CC3)cc1OC -7.86%
O=C(CSc1nccn1Cc1ccco1)Nc1cc(C(F)(F)F)ccc1Cl -19.1%
CCN(c1ccccc1)c1nnc(NC(=O)Nc2ccc(Br)c(C)c2)s1 -7.58%
O=C(c1ccc2c(Cl)c3c(nc2c1)CCCC3)N1CCN(c2cccc(C(F)(F)F)c2)CC1 1.01%
COc1cc(OC)c(NC(=O)C2CCN(S(=O)(=O)c3ccc4c(c3)oc(=O)n4C)CC2)cc1Cl -10.2%
COc1ccc2c(CNCCc3cccs3)c(C(=O)O)n(Cc3cccc(F)c3)c2c1 -12.3%
Cc1ccc(CNC(=O)CN2CCN(Cc3ccc(F)cc3Cl)C2=O)cc1 -10.3%
COc1ccc2nc(NC(=O)c3cc(=O)c4cc(C)cc(C)c4o3)sc2c1 -18.6%
CCc1ccc(S(=O)(=O)c2cn(CC)c3cc(N4CCCCC4)c(F)cc3c2=O)cc1 -6.67%
COc1ccc(OC)c(NC(=O)CCNS(=O)(=O)c2ccc3c(c2)oc(=O)n3C)c1 -5.65%
CCc1ccc(Nc2sc(C(=O)c3ccc(F)cc3)c(N)c2S(=O)(=O)c2ccccc2)cc1 -7.17%
Nc1c(C(=O)NCc2ccc(Cl)cc2)sc2nc(-c3ccc(F)cc3)ccc12 -2.23%
COc1ccc(C(=O)N2CCN(CC(=O)N3CCOCC3)CC2)cc1 -9.75%
CC1=C(C(=O)OCc2ccc(C)cc2)C(c2cccc(F)c2F)CC(=O)N1 (stereo not given) -16.5%
